The other results are listed elsewhere or left out.
Tested on: PF3D7_0420300 AP2 domain 1 (GST-tagged)
Assay: gcPBM binding intensity (ln(normalized median fluorescence intensity)); higher = stronger DNA binding
How it was run: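 Binding intensity is defined as the maximum Masliner-normalised natural-log median intensity across replicate spots for either probe orientation. It was measured on an Agilent 4 × 180k array of primer-extended double-stranded 36-bp intergenic genomic probes and negative controls, to which GST-tagged P. falciparum DNA-binding domains made in E. coli were applied for 1 h in 1× PBS with 1% milk, 0.2 mg/ml BSA, 0.5% salmon testes DNA and 0.03% Triton X-100. Detection was by Alexa488 anti-GST antibody and scanning at 488 nm.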

Sequence	gcPBM binding intensity (ln)
TATTTTATCATTTGCACACGCACACCCACATAAAAA [CACACA_site354]	9.56
AGTATTATATTTTCTTGTACACATGTAAAATACCTC [XGTACX_site1359]	9.32
AAAAAAAAAAAAAAAACACACATATATGTATATATA [CACACA_site3276]	9.3
ATGTTATATTTTTTTATACACACTGGAATATATAAA [CACACA_site215]	9.37
TATATATATATATATTGTACTTTATTTTATATATTC [XGTACX_site5697]	9.26
ATTTATAATGAGTATACACACATATATAGATTTGCT [CACACA_site4517]	9.49
ATTATTATTGTCAAATGTACAAGCTAATAATTTTTA [XGTACX_site7167]	8.91
CAACAACATTTTTCATGTACATATATTTTATAATAT [XGTACX_site519]	9.26
AAAAAAAAAAAAAACATACACACAAGAACAAAATAT [CACACA_site3003]	10.2
TTTTTTTTTTGTAATACACACCACTATATGTTATTT [CACACA_site5087]	9.68
AAACATTTAAATGGAAACACAGAAAAATGAAAAATG [CACACA_negctrl_site457]	9.59
ATATATATATATACATGTACATATATACATTATATT [XGTACX_site936]	9.19
ATATATTTTCATTTTACACACAAATAAAGATAATTT [CACACA_site2996]	9.4
AAAATAAATAAAAAAAGTACATATATAATTTATAAA [XGTACX_site2411]	9.32
TCTTGATACAAACATTTAAATAAATAAATAAAAAAA [GTGCAC_negctrl_site41]	8.96
TGTTGTGATATATTAAAATCGTCCCTTATAATTTTA [GTGCAC_negctrl_site595]	9.26
TAATATTATATTTATAGTACATATAATATATATATA [XGTACX_site2964]	8.93
AAAATACACGCATACACACACACACCGACACATATA [CACACA_site4523]	10.2
AAACACACACACAAATGTACATATATATATATATTT [XGTACX_site5090]	9.74

Sequence	gcPBM binding intensity (ln)
GAACACTAATAATGTTGTACACGTAATTATATATTT [XGTACX_site777]	9.35
TTTTCTTAATATTTCGTTTTACATAAACCTTTTAAA [CACACA_negctrl_site660]	9.12
AATATAATATTATATAGTACATATTTCTTTTATTTT [XGTACX_site22]	9.27
TATATATATATAAGTAGTACAATAATATATTATTTT [XGTACX_site6450]	9.3
TTTTACATCATATATAGTACATATATTATACATATA [XGTACX_site8590]	9.28
TATATATATATAATTGCACACATCAAGTTTGATGTT [CACACA_site1288]	9.29
AAATGTACAGGACGCACACACATATTTATATTTATA [CACACA_site7689]	9.67
GTTGTATACAATAATGTGCACATATTAATTTGAACT	9.36
TTTTTTTTTCCTTTTTTTTAAATATTAAAAATGGGA [TGCATGCA_negctrl_site494]	8.69
TAAGTTTTGTTTTTTTGTACTCATTCATACTATCAT [XGTACX_site3638]	9.44
CTTATTTACTATTTTTCACACATTACAGATAAACAA [CACACA_site6095]	9.25
TAAATATATATATATAGTACAATATAATTATGATAT [XGTACX_site258]	9.29
TCATTGAAAAAAATCTGTACTGACTATATAGTTGCA [XGTACX_site1566]	8.92
TATAATATATGTATATGTACTTATGTTGAGAAACAT [XGTACX_site2117]	9.19
TACCTAATATGTTATACACACATTATGAGTACATAT [CACACA_site2466]	9.57
GAATAATATATATGTTCACACATGGTCTTTATTATA [CACACA_site5457]	9.45
GTTATATAAACATATGCATGTGAAGTGTTTATTAAT [TGCATGCA_site183]	9.22
TATGAGAAAAAAAGTACATGCACAAAATGTATATGT [TGCATGCA_site789]	9.38
ATTATATAAACCAAATGTACAAAAAGGTCGTAGTGG [XGTACX_site1298]	9.77

Sequence	gcPBM binding intensity (ln)
CAACATTGTTCCTATTGTACATGAACTGTTCATACG [XGTACX_site4070]	9.11
ATTATTAAGGTTTATTCAAAAAAGACGTTTTTAAAT [CACACA_negctrl_site1059]	8.95
AGACACGTATACGATGCACACGTATGCTTTATATAT [CACACA_site9363]	9.45
TTTTTTTTTTTTTTTGCACACTTAAATTTGGTGGCT [CACACA_site5319]	8.98
GCTTAATACAGAATAACACACAAAATAAATAAATAA [CACACA_site4041]	9.56
TATATTTGTGCGTGTACACATTTGAAAAAATATATA [CACACA_site5079]	9.13
TCTTGATTAACTTAAAAAAAAAAAAAAAAAAAAAAA [CACACA_negctrl_site458]	8.53
GACATATATACCAAACGTACATATGTGCAAGCATAA [XGTACX_site3089]	9.17
TTGGCTATAGCCAATTGTACTTTTTCTCTTTGGCTT [XGTACX_site1119]	9.08
CATATAATAAATAATTGTACTTGATATAATATTATG [XGTACX_site3562]	9.12
ATAAATTATAATAACTGTACAAAAATAATATATTCA [XGTACX_site1856]	9.25
TATATAATTATTTTTTGTACTCATAATAATATGAAA [XGTACX_site289]	8.82
AATAATAATAAAAAGGTGCTGAAATATTTTTATTAT [GTGCAC_site9763]	9.38
ATATGTACAAAATAAGCACACACAAAAAAAAAAAAA [CACACA_site8984]	9.69
AAAAAAAAAAAAAATATATATATATATATATATATA [CACACA_negctrl_site540]	9.31
TTTTTTTTTTTTTTTTGTACATAAATTTTTATTAGA [XGTACX_site6409]	8.77
AATAATAATGCTTTAACTTTGTTGTTATTTAGAATA [CACACA_negctrl_site1144]	9.02
TATAAATAAAAGTGTACACACATTAAAATCAAACGT [CACACA_site5316]	9.85

Reference: the supplement of paper PMC11417369
